# The supplement of paper PMC3334620
# In all, about 33,000 sequences were measured (“E-score (-0.5 to 0.5)”: median about -0.04, highest 2% from about 0.36 on). Some of the results follow.
# Target: T1, Hmlalpha2 (UniProt P0CY09)
# T1 sequence: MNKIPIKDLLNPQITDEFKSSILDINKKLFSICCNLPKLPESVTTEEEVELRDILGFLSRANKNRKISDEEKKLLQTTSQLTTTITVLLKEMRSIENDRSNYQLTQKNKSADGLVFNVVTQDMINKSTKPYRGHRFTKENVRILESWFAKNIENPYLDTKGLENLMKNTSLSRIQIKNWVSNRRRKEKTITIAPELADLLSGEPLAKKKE
# Experiment: PBM E-score (8-mer binding enrichment) (E-score (-0.5 to 0.5)); higher = stronger / more preferred TF binding; most listed sequences are background and not binding sites
# Conditions: protein concentration: 200 nM; construct: GST-full length
# How it was run: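 Using PURExpress in vitro transcription/translation, GST-tagged yeast transcription factors were made in full-length or DNA-binding-domain form. These were applied at about 100-200 nM to double-stranded universal all-10-mer Agilent arrays, and bound protein was detected with fluorescent anti-GST. Scans were normalised with masliner before the Universal PBM Analysis Suite assigned E-scores to ungapped eight-base words pooled with their reverse complements.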
row,Sequence,PBM E-score
1,CTCTAGCA,-0.0969
2,AAAAAAAA,0.172
3,ACTGTAGC,-0.0662
4,TAGACCCA,-0.129
5,AGGTACAC,0.0905
6,CACCCACA,-0.0855
7,GATTATCC,-0.175
8,CCACGGGA,-0.0912
9,ATGGGTGA,-0.0715
10,CCGACACG,0.0312
11,CTCTCTAC,0.0221
12,CGGTCGCA,-0.208
13,GGGCACCA,-0.151
14,GTTCCACA,-0.077
15,CACGCCGA,-0.147
16,CCAACCAG,-0.174
17,ATACGTAA,0.379
18,CGCAGGCA,-0.0697
19,CAAATGGG,-0.132
20,ACTATTAT,0.0136
21,GGAGCCAC,-0.308
22,CCGCTGCG,-0.211
23,ACTGGTTC,0.0585
24,ATCGAGCA,-0.0893
25,ATGGTCTC,0.0169

row,Sequence,PBM E-score
1,AATAGATA,0.0285
2,CTCGCGAG,-0.227
3,GTCACGTA,0.271
4,AATGTTGT,0.289
5,CGTCACGA,-0.117
6,CTCTCCCC,-0.387
7,GCTTTTCA,0.00885
8,CGGCTACA,0.0805
9,AGGCACTC,-0.19
10,AATCCGGG,-0.29
11,AGTAAGTA,0.166
12,ACCCTGTC,-0.219
13,CGGTCCCA,-0.241
14,CCGGCGAA,-0.169
15,CCGCGTCC,0.0285
16,AATGTAAT,0.461
17,AGAACGCC,-0.0421
18,GATTAACC,-0.108
19,AATGCAAA,0.123
20,GGCATGAA,-0.0459
21,ACACCCTG,0.00619
22,AATTCTCG,0.109
23,CCCCCGTC,-0.35
24,GGACGTCA,-0.0851
25,GGCATCTA,-0.0197

row,Sequence,PBM E-score
1,ATTCTTAG,-0.0672
2,ACAAACTA,0.126
3,GCTACTCC,-0.37
4,CTGTAAAA,0.359
5,ACAGTATA,0.153
6,GATCTGGA,-0.178
7,AGCTCGAT,-0.165
8,GAAGCTAA,-0.0677
9,GCTATCAA,-0.0322
10,AGGTTATG,0.0259
11,TGTCTCAA,-0.0917
12,GTCTACCA,-0.144
13,AACAAATC,0.139
14,CGCGCGTA,0.283
15,GTATTGAA,0.216
16,CGGCGAAG,-0.341
17,TATACCAA,0.128
18,AGTTCTCA,0.0389
19,AAAAAATA,0.0882
20,TCTGGCAA,-0.181
21,GAGGTCAA,-0.0488
22,GCGGTCCA,-0.16
23,AGCGTAGG,-0.16
24,ATCCAACC,-0.143
25,GAAGAGGC,-0.235

row,Sequence,PBM E-score
1,CGTCCGGC,-0.144
2,CCGGTTCA,-0.211
3,AAACCGGT,-0.0667
4,GGCGTGAC,-0.0919
5,GATGCCGA,-0.0884
6,AACATCCT,0.0107
7,GCTGGAGA,-0.279
8,GCCGGGTA,-0.24
9,AGACGGCT,-0.177
10,GTATAACA,0.378
11,ACACTTGC,0.0919
12,GCTGAGAC,-0.0953
13,AGGCCTAT,0.147
14,GCTAATGA,-0.185
15,CGAGCTAA,-0.0985
16,GATGCAAA,-0.223
17,CCTTAGAA,-0.0456
18,GTTCACAA,0.252
19,CTTGATCC,-0.142
20,AAATGGTA,0.117
21,AAAATGCC,-0.121
22,CTAGCATA,0.00952
23,GATAACTA,0.095
24,AAGGAGTC,-0.279
25,CTGAGCGC,-0.156

row,Sequence,PBM E-score
1,AACCCGTA,-0.12
2,ACTGATAC,0.0372
3,CGGAAGGA,-0.0677
4,GCTCGCCC,-0.187
5,AAATCTGC,0.00182
6,ATTGACAC,0.354
7,ATGGTTCA,0.0542
8,CAGATAGC,-0.275
9,GGCCGGGA,-0.237
10,TACGTCTA,0.108
11,AGGTCGTC,-0.228
12,AAGTACTT,0.133
13,AATCACAT,0.183
14,CGACACAA,0.204
15,GCTGCGAA,-0.0258
16,ACACAGCC,0.317
17,GGTTCTTA,0.0405
18,AGATCACT,-0.0166
19,CAGTTGAG,-0.135
20,GCCTCGGA,-0.294
21,GACTCTCA,-0.277
22,ACACACAT,0.379
23,ACATAAGC,0.24
24,GTGCACCA,-0.0978
25,ATACTCAG,0.217

row,Sequence,PBM E-score
1,AGAGACCT,-0.0673
2,CCATGATA,-0.142
3,TCCCTCAA,-0.239
4,GCTAGGAC,-0.0406
5,GATTCGGA,0.145
6,ACGTGTCG,0.308
7,CATTGGCC,-0.195
8,ATGGTCGC,0.0102
9,CCTACCCA,-0.192
10,GGATATAA,0.147
11,CATCTAGA,-0.19
12,TGTTAACA,0.426
13,ACTTTTAG,-0.0435
14,CAGCGGGG,-0.331
15,GATACAAA,0.264
16,CATGGTAG,0.1
17,AAAGACGT,-0.00312
18,AAAACGGA,0.139
19,CGTATCAC,0.0589
20,CATTGTAC,0.273
21,GTTTCCTA,0.0846
22,ACAGCAAC,0.141
23,ATCCTAAG,-0.295
24,ACTTCAGC,-0.11
25,TGTGACAA,0.0767

row,Sequence,PBM E-score
1,GGATTACC,-0.00329
2,GATAGGAA,-0.227
3,CTTACCCA,-0.0496
4,TTCCAGAA,0.112
5,CTGCAATA,0.0256
6,AGGATCAG,-0.344
7,GAGATACA,0.245
8,AGAACGCT,-0.0269
9,CCAATACG,0.175
10,GACACGGA,0.224
11,GACCTACA,0.0344
12,AAGAAATT,0.0903
13,AAGCGTGG,-0.0995
14,GCTCTTAC,0.3
15,CAACGAGA,0.109
16,CCGCGGTA,-0.211
17,TGCTCAAA,0.0276
18,GTACATGA,0.426
19,GAGGGTCA,-0.228
20,TCTAGTCA,-0.0327
21,CTGGCATA,-0.17
22,CATAAGCC,-0.0206
23,CAACGAGG,0.138
24,CACCACGC,-0.221
25,CGTATGCA,0.0417

row,Sequence,PBM E-score
1,GAAAGCTC,-0.015
2,CAGCCAGA,-0.228
3,AGAGAGGC,-0.32
4,AAAAGAGT,-0.093
5,CGGGGCCC,-0.132
6,AATTGTCA,0.25
7,AGATTCAA,0.079
8,CAATATTG,0.21
9,GTAACGAA,0.186
10,AACATGCT,0.396
11,ACCGATTG,0.145
12,TAGACAGA,0.0404
13,CCCATACG,-0.164
14,AAGCATAG,-0.0992
15,ACAGTTGG,-0.0319
16,GATGGAAC,-0.067
17,CATTATAA,0.00513
18,AGAGTTAC,0.0861
19,GCCTAGTA,-0.0732
20,AATGTTTG,0.145
21,CCCTCCTA,-0.247
22,AATGCTCT,0.0455
23,GCAAATAC,0.184
24,CATCATAC,0.193
25,GACTGAGC,-0.152

row,Sequence,PBM E-score
1,GGGGTCGA,-0.083
2,ATTATCGA,-0.00134
3,ACGAAGCA,0.0649
4,ATATCGAG,0.00282
5,CGCGACGC,-0.0165
6,TCAAGCGA,-0.162
7,CAAGACAC,0.244
8,CCGGCGCA,-0.169
9,CGTACTCA,0.0663
10,GGGACAGA,-0.264
11,GATTACAA,0.438
12,ATTGGTCG,-0.00657
13,CGCTGTGA,-0.121
14,AGCCGGTA,0.0743
15,CCCCCCAG,-0.357
16,GGCTTGAC,-0.093
17,ACAATGAA,0.174
18,ATGTGTAG,0.349
19,GGAGGTAA,0.0862
